Screen size: about 390,000 compounds; about 17,000 (4.4%) were called active. The inconclusive results got no clear call from the source; some entries with a clear call stand among them for comparison. The call rests on the fitted dose curve; in most records, active means well fitted inhibition curve with a large enough effect; inconclusive means small, poorly fitted or top-dose-only effect; inactive means no such curve, though single readings can be large or run the other way. Potencies beside an inconclusive call are fits to weak or partial responses and may not hold up.
These compounds were tested against Lysine-specific demethylase 4A (Homo sapiens) (UniProt O75164) (assay: qHTS Assay for Inhibitors of JMJD2A-Tudor Domain). Conditions: AlphaScreen JMJD2A-Tudor / H3K4me3 peptide binding; activity change, negative = inhibition: at 114 µM (top of the series).
Further: nearly all actives have a fitted effect of over 50% in size.
On the % scale 0 is the no-effect control and ±100 the full control effect; potency means the concentration at half of the fitted maximal effect; tags describe the fitted curve by direction and shape.

Sequence of UniProt O75164 (O75164 whole entry, looked up, the tested form may be a part): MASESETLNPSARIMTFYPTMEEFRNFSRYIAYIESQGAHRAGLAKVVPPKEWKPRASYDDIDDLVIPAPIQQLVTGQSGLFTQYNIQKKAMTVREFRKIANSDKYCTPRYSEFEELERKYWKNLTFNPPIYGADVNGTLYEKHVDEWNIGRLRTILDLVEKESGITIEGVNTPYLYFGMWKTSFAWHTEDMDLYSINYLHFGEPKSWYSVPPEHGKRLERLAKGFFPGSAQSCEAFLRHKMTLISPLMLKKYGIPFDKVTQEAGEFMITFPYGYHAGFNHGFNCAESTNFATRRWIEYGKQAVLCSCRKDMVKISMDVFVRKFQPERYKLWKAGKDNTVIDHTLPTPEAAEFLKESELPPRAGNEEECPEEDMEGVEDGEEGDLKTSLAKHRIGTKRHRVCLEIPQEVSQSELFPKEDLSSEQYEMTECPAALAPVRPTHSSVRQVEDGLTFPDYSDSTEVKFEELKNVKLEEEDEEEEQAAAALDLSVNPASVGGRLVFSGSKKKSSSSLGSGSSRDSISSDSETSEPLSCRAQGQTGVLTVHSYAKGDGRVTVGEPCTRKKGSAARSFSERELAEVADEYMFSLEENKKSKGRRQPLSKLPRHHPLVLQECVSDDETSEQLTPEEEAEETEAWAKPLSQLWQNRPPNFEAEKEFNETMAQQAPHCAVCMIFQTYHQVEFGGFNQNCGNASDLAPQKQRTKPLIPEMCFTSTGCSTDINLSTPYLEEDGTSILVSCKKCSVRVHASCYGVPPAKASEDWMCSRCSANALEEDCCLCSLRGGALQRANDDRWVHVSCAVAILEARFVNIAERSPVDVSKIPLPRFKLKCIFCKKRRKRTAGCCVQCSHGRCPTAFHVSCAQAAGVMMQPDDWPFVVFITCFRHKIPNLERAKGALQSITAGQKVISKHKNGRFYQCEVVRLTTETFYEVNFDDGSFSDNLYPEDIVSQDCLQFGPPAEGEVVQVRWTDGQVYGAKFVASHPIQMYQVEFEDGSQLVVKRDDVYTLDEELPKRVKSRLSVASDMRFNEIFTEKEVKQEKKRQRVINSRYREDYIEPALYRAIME

Q: For COC(=O)Cn1c(SCCOc2ccccc2Cl)nc2ccccc21, which Potency is on record?
A: inconclusive: 56.2 µM [inhibitor, partial curve]

Q: With Cc1ccc(NCc2ccc([N+](=O)[O-])s2)cc1 as the compound, how does the Potency read?
A: inconclusive: 50.1 µM [inhibitor, partial curve]

Q: Which Potency does the source give for CN(C)c1ccc(N=Cc2nc(-c3ccccc3)oc2OC(=O)c2cccc(Br)c2)cc1 here?
A: inconclusive: 39.8 µM [inhibitor, partial curve]

Q: COCCN(C(=O)CSc1nnc(-c2ccccc2F)n1C)c1c(N)n(Cc2ccccc2)c(=O)[nH]c1=O was tested. Which Potency did it give?
A: inconclusive: 100 µM [inhibitor, single point]

Q: With CCN(CC(=O)Nc1ccc(NC(C)=O)cc1)C(=O)c1cc(CN2C(=O)c3ccccc3C2=O)ccc1OC as the compound, how does the “activity change, negative = inhibition” value read?
A: inactive: -8.97%

Q: With CCOc1ccc(CNC(=O)c2ccc(Sc3ccc(C)cc3)c(N)c2)cc1OC as the compound, how does the Potency read?
A: inconclusive: 50.1 µM [inhibitor, partial curve]

Q: For CC(=C\c1ccco1)/C=C(\C#N)C(=O)NCCc1c[nH]c2ccccc12, which Potency is on record?
A: inconclusive: 10 µM [inhibitor, partial curve]

Q: CC(C)(C)c1ccc(NC(=O)C2=CC=CN3CCS(=O)(=O)N=C23)cc1 was tested. Which “activity change, negative = inhibition” value did it give?
A: inactive: -10.4%

Q: With O=C(COC(=O)CCCN1C(=O)c2ccccc2C1=O)Nc1ncc(Cl)cc1Cl as the compound, how does the Potency read?
A: inconclusive: 79.4 µM [inhibitor, partial curve]

Q: With O=C(Cn1cc(S(=O)(=O)Cc2cccc(F)c2)c2ccccc21)N1CCOCC1 as the compound, how does the “activity change, negative = inhibition” value read?
A: inactive: -11.8%

Q: With COc1ccccc1Nc1nc2nonc2[nH]c1=O as the compound, how does the activity change, negative = inhibition read?
A: inconclusive: -48.9% [inhibitor]

Q: For O=C(O)CN1C(=O)/C(=C\c2cccc(OCc3ccc(Cl)cc3Cl)c2)SC1=S, which Potency is on record?
A: active: 50.1 µM

Q: CN1CCN(CCCCOc2cccc3ccccc23)CC1 was tested. Which “activity change, negative = inhibition” value did it give?
A: inactive: -30.3%

Q: For COc1ccc(CNC(=O)[C@H](C)NC(=O)C2CCN(C(=O)[C@@H](N)Cc3ccccc3)CC2)cc1, which “activity change, negative = inhibition” value is on record?
A: inactive: -11.6%

Q: How did the Potency turn out when COC(=O)c1ccc(Cn2c(C)cc(C)[n+]2C)o1 was run?
A: active: 39.8 µM

Q: How did the Potency turn out when Cc1ccc(C(C#N)c2ccc3c(C(F)(F)F)cc(C(F)(F)F)nc3n2)cc1 (stereo not drawn) was run?
A: active: 5.62 µM

Q: How did the Potency turn out when Cc1ccc(Cl)c(OC(=O)c2ccc(N3CCOCC3)c([N+](=O)[O-])c2)c1 was run?
A: inconclusive: 25.1 µM [inhibitor, full curve]

Q: For Cc1cccc2cc(CN(Cc3ccc(F)cc3)C(=O)N3CCOCC3)c3nnnn3c12, which Potency is on record?
A: inconclusive: 39.8 µM [inhibitor, single point]

Q: For CS(=O)(=O)c1ccccc1-c1nnc(NC(=O)c2ccc(S(=O)(=O)N3CCCC3)cc2)o1, which Potency is on record?
A: inconclusive: 56.2 µM [inhibitor, partial curve, poor fit]

Q: How did the Potency turn out when COc1ccc(C(=O)NCc2nnc(SC)n2Cc2ccccc2)cc1 was run?
A: inconclusive: 89.1 µM [inhibitor, single point]

Q: How did the “activity change, negative = inhibition” value turn out when COC(=O)C1=C[C@@H](C(=O)OC)C2C3=C(C(=O)[C@@]2(C)NC(=O)c2ccccc2)[C@H](C)[C@@H]2C(=O)NC(=O)[C@@H]2[C@@H]3C1 (stereo partly drawn) was run?
A: inactive: -10.3%

Q: How did the Potency turn out when CCCn1c(CNc2ccccc2O)nc2ccccc21 was run?
A: inconclusive: 79.4 µM [inhibitor, partial curve]

Q: Which Potency does the source give for C=CCn1c(-c2ccc(OC)cc2)csc1=Nc1c(C)n(C)n(-c2ccccc2)c1=O here?
A: inconclusive: 79.4 µM [inhibitor, partial curve]

Q: Cc1c(N=Cc2cc3c(cc2[N+](=O)[O-])OCO3)cccc1[N+](=O)[O-] was tested. Which Potency did it give?
A: inconclusive: 44.7 µM [inhibitor, partial curve]

Q: For CCOc1ccc(N(C)S(=O)(=O)c2cc(-c3cnc(C)o3)ccc2OC)cc1, which Potency is on record?
A: inconclusive: 56.2 µM [inhibitor, partial curve]

Q: CC1=NN(c2ccc(S(=O)(=O)O)cc2Cl)C(=O)C1 was tested. Which Potency did it give?
A: inconclusive: 22.4 µM [inhibitor, partial curve]

Q: O=C(Nc1nnc2n1CCS2)c1cc(C(F)(F)F)cc(C(F)(F)F)c1 was tested. Which “activity change, negative = inhibition” value did it give?
A: inactive: -14.2%

Q: Which Potency does the source give for Cc1ccc(C(=O)c2cc([N+](=O)[O-])ccc2N2CCOCC2)c(C)c1 here?
A: inconclusive: 11.2 µM [inhibitor, full curve]

Q: With O=C(O)c1c2c(nc3ccc(S(=O)(=O)N4CCC(C(=O)NC5CCCCCC5)CC4)cc13)CCCC2 as the compound, how does the Potency read?
A: inconclusive: 79.4 µM [inhibitor, partial curve]

Q: Which Potency does the source give for CC(C)C[C@@H]1CN=C(N)N1C[C@@H]1CCCN1C[C@H](C)N1C[C@@H](Cc2ccccc2)N(CCCC2CCCC2)C1=N here?
A: inconclusive: 50.1 µM [inhibitor, partial curve]

Q: With C=C/C(C)=C/CC1C(=C)CCC2C(C)(C(=O)O)CCCC12C (stereo not drawn) as the compound, how does the Potency read?
A: active: 56.2 µM

Q: For COc1ccc(CNC(=O)C2CCN(c3nnc(C)c4c(C)n(-c5ccc(C)cc5)nc34)CC2)cc1, which Potency is on record?
A: inconclusive: 79.4 µM [inhibitor, single point]

Q: With CC1=NN(c2ccccc2)C(=O)/C1=C\C=C1\N(C)c2ccccc2C1(C)C as the compound, how does the Potency read?
A: active: 56.2 µM

Q: For O=C(NC(=Nc1nc2ccccc2o1)NC(=O)c1ccccc1)c1ccccc1, which “activity change, negative = inhibition” value is on record?
A: inactive: -18.2%

Q: For CCCCC1OC23CCCCC2C(C#N)(C#N)C1(C#N)C(=N)O3 (stereo not drawn), which “activity change, negative = inhibition” value is on record?
A: inactive: -13.7%

Q: COc1ccc(CCNC(=O)c2ccc(-c3ccc([N+](=O)[O-])cc3Cl)o2)cc1 was tested. Which Potency did it give?
A: inconclusive: 10 µM [inhibitor, full curve]

Q: How did the Potency turn out when CN1CCN(C(=O)c2cccc(-c3cc(O)c4ncccc4c3)c2)CC1 was run?
A: active: 50.1 µM

Q: N#Cc1nc(Cc2cccc3ccccc23)oc1NCc1ccc2c(c1)OCO2 was tested. Which Potency did it give?
A: inconclusive: 50.1 µM [inhibitor, partial curve]

Q: Brc1ccccc1OCCCN1CCCCCC1 was tested. Which Potency did it give?
A: active: 1 µM

Q: Cc1ccc(NCc2ccncc2)c(Br)c1 was tested. Which Potency did it give?
A: active: 1.58 µM

Q: How did the Potency turn out when Cc1c(Cc2ccc3c(c2)OCO3)sc(NC(=O)c2cccc3ccccc23)c1C(N)=O was run?
A: inconclusive: 39.8 µM [inhibitor, partial curve]

Q: For COC(=O)c1cn(NC(=O)C2CCCO2)c(=O)c2ccccc12 (stereo not drawn), which Potency is on record?
A: inconclusive: 20 µM [inhibitor, partial curve, poor fit]

Q: Which Potency does the source give for O=C(CCc1n[nH]c(=O)[nH]c1=O)Nc1cccc([N+](=O)[O-])c1 here?
A: inconclusive: 17.8 µM [inhibitor, partial curve]
